# According to US6509443:
# T1: human IGFBP-1 (human, UniProt P08833 26-259)
# T1 construct: mature
# T1 sequence (looked up): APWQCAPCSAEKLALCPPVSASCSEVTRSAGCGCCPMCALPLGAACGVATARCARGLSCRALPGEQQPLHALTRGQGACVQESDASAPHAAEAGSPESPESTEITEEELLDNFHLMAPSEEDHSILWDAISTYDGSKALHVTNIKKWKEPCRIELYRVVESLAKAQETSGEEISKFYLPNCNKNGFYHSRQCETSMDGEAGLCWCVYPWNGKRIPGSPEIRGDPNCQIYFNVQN
# B1: IGF-I S1A on phage (G1S-A70V background, gene III fusion) (ligand, bacteriophage M13)
# chain: [letters of about 80 residues with changes not shown]SGGGSGSGDFDYEKMANANKGAMTENADENALQSDAKGKLDSVATDYGAAIDGFIGDVSGLANGNGATGDFAGSNSQMAQVGDGDNSPLMNNFRQYLPSLPQSVECRPFVFSAGKPYEFSIDCDKINLFRGVFAFLLYVATFMYVFSTFANILRNKES
# notes: range […]; monovalent on M13 phage
# Biological target: T1, human IGFBP-1
# Test: competitive phage ELISA
# Description: Phage particles were harvested and resuspended in PBS buffer as described in Lowman, H. B., "Phage Display of Peptide Libraries on Protein Scaffolds," in Cabilly, S. (ed.), *Combinatorial Peptide Library Protocols* (Humana Press Inc.: Totowa, N.J., 1998), pp. 249–264. Then phage concentrations were normalized to yield a maximal ELISA signal of 0.2–0.4 for each mutant (Lowman, in Cabilly, S. (ed.), supra). Threefold serial dilutions of soluble competitor were prepared on non-absorbent microtiter plates (Nunc, F, 96 wells) with binding buffer (0.5% TWEEN™ 20/PBS) containing phage at the previously-determined concentrations. […] After blocking, the plates containing immobilized target were washed with 0.05% TWEEN™/PBS buffer and subsequently incubated with 80 μl/well of the premixed phage-competitor solutions for 1 hour at room temperature. […] Numbers in Table I represent mean±standard deviation of individually assessed $IC50$ values.
# At least two different clones of every mutant were tested.
binder,measurement,value
B1,binding result,binds
